The results in this text go back to the supplement of paper PMC8728848.

The list shows a part of the results.

Common to all, as to test: glycan array binding signal (z-score within array); higher = stronger binding
Holding throughout (conditions): glycan notation: IUPAC condensed, linker removed

Test [1] addresses Gal(b1-4)GlcNAc(b1-3)Gal(b1-3)GlcNAc. The method, boiled down: (§1)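 Glycan array data were curated from 3228 arrays in the Consortium for Functional Glycomics database and kept only where the protein sequence was available. Glycan names were converted to IUPAC-condensed notation, and columns mapping to the same glycan were averaged. The binding signal is a within-array Z-score, averaged across arrays of the same protein sequence at different concentrations or buffers and across linkers. Negative Z-scores can be read as non-binding.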

The target of test [2] is Gal(b1-4)GlcNAc(b1-3)Gal(b1-4)Glc. The method, boiled down:
as §1

For test [3], the target named is Gal(b1-4)GlcNAc(b1-3)Gal(b1-4)GlcNAc. In a few lines: as §1
For test [4], the target named is Gal(b1-4)GlcNAc(b1-3)Gal(b1-4)GlcNAc(b1-2)Man(a1-3)[Gal(b1-4)GlcNAc(b1-3)Gal(b1-4)GlcNAc(b1-2)Man(a1-6)]Man(b1-4)GlcNAc(b1-4)GlcNAc. In a few lines: as §1
Test [5] deals with Gal(b1-4)GlcNAc(b1-3)Gal(b1-4)GlcNAc(b1-2)Man(a1-3)[Gal(b1-4)GlcNAc(b1-3)Gal(b1-4)GlcNAc(b1-2)Man(a1-6)]Man(b1-4)GlcNAc(b1-4)[Fuc(a1-6)]GlcNAc. The method, boiled down: as §1
In test [6] the target is Gal(b1-4)GlcNAc(b1-3)Gal(b1-4)GlcNAc(b1-2)[Gal(b1-4)GlcNAc(b1-3)Gal(b1-4)GlcNAc(b1-6)]Man(a1-6)[Gal(b1-4)GlcNAc(b1-3)Gal(b1-4)GlcNAc(b1-2)Man(a1-3)]Man(b1-4)GlcNAc(b1-4)GlcNAc. In a few lines:
as §1

The target of test [7] is Gal(b1-4)GlcNAc(b1-3)Gal(b1-4)GlcNAc(b1-2)[Gal(b1-4)GlcNAc(b1-3)Gal(b1-4)GlcNAc(b1-6)]Man(a1-6)[Gal(b1-4)GlcNAc(b1-3)Gal(b1-4)GlcNAc(b1-2)Man(a1-3)]Man(b1-4)GlcNAc(b1-4)[Fuc(a1-6)]GlcNAc. The method, boiled down: as §1
Test [8] deals with Gal(b1-4)GlcNAc(b1-3)Gal(b1-4)GlcNAc(b1-3)Gal(b1-4)GlcNAc. In a few lines:
as §1

Test [9] addresses Gal(b1-4)GlcNAc(b1-3)Gal(b1-4)GlcNAc(b1-3)Gal(b1-4)GlcNAc(b1-2)Man(a1-3)[Gal(b1-4)GlcNAc(b1-3)Gal(b1-4)GlcNAc(b1-3)Gal(b1-4)GlcNAc(b1-2)Man(a1-6)]Man(b1-4)GlcNAc(b1-4)GlcNAc. In a few lines: as §1
In test [10] the target is Gal(b1-4)GlcNAc(b1-3)Gal(b1-4)GlcNAc(b1-3)Gal(b1-4)GlcNAc(b1-2)Man(a1-3)[Gal(b1-4)GlcNAc(b1-3)Gal(b1-4)GlcNAc(b1-3)Gal(b1-4)GlcNAc(b1-2)Man(a1-6)]Man(b1-4)GlcNAc(b1-4)[Fuc(a1-6)]GlcNAc. In a few lines:
as §1

The target of test [11] is Gal(b1-4)GlcNAc(b1-3)Gal(b1-4)GlcNAc(b1-3)Gal(b1-4)GlcNAc(b1-2)[Gal(b1-4)GlcNAc(b1-3)Gal(b1-4)GlcNAc(b1-3)Gal(b1-4)GlcNAc(b1-6)]Man(a1-6)[Gal(b1-4)GlcNAc(b1-3)Gal(b1-4)GlcNAc(b1-3)Gal(b1-4)GlcNAc(b1-2)Man(a1-3)]Man(b1-4)GlcNAc(b1-4)[Fuc(a1-6)]GlcNAc. In a few lines: as §1
Test [12] has as its target Gal(b1-4)GlcNAc(b1-3)Gal(b1-4)GlcNAc(b1-3)Gal(b1-4)GlcNAc(b1-3)Gal(b1-4)GlcNAc(b1-2)Man(a1-3)[Gal(b1-4)GlcNAc(b1-3)Gal(b1-4)GlcNAc(b1-3)Gal(b1-4)GlcNAc(b1-3)Gal(b1-4)GlcNAc(b1-2)Man(a1-6)]Man(b1-4)GlcNAc(b1-4)GlcNAc. The method, boiled down:
as §1

The target in test [13] is Gal(b1-4)GlcNAc(b1-3)Gal(b1-4)GlcNAc(b1-3)Gal(b1-4)GlcNAc(b1-3)Gal(b1-4)GlcNAc(b1-2)Man(a1-3)[Gal(b1-4)GlcNAc(b1-3)Gal(b1-4)GlcNAc(b1-3)Gal(b1-4)GlcNAc(b1-3)Gal(b1-4)GlcNAc(b1-2)Man(a1-6)]Man(b1-4)GlcNAc(b1-4)[Fuc(a1-6)]GlcNAc. In a few lines:
as §1

For test [14], the target named is Gal(b1-4)GlcNAc(b1-3)Gal(b1-4)GlcNAc(b1-3)Gal(b1-4)GlcNAc(b1-3)Gal(b1-4)GlcNAc(b1-2)[Gal(b1-4)GlcNAc(b1-3)Gal(b1-4)GlcNAc(b1-3)Gal(b1-4)GlcNAc(b1-3)Gal(b1-4)GlcNAc(b1-6)]Man(a1-6)[Gal(b1-4)GlcNAc(b1-3)Gal(b1-4)GlcNAc(b1-3)Gal(b1-4)GlcNAc(b1-3)Gal(b1-4)GlcNAc(b1-2)Man(a1-3)]Man(b1-4)GlcNAc(b1-4)[Fuc(a1-6)]GlcNAc. The method, boiled down: as §1
For test [15], the target named is Gal(b1-4)GlcNAc(b1-3)Gal(b1-4)GlcNAc(b1-3)Gal(b1-4)GlcNAc(b1-3)Gal(b1-4)GlcNAc(b1-3)Gal(b1-4)GlcNAc(b1-2)Man(a1-3)[Gal(b1-4)GlcNAc(b1-3)Gal(b1-4)GlcNAc(b1-3)Gal(b1-4)GlcNAc(b1-3)Gal(b1-4)GlcNAc(b1-3)Gal(b1-4)GlcNAc(b1-2)Man(a1-6)]Man(b1-4)GlcNAc(b1-4)GlcNAc. In a few lines:
as §1

Test [16] has as its target Gal(b1-4)GlcNAc(b1-3)Gal(b1-4)GlcNAc(b1-3)Gal(b1-4)GlcNAc(b1-3)Gal(b1-4)GlcNAc(b1-3)Gal(b1-4)GlcNAc(b1-2)Man(a1-3)[Gal(b1-4)GlcNAc(b1-3)Gal(b1-4)GlcNAc(b1-3)Gal(b1-4)GlcNAc(b1-3)Gal(b1-4)GlcNAc(b1-3)Gal(b1-4)GlcNAc(b1-2)Man(a1-6)]Man(b1-4)GlcNAc(b1-4)[Fuc(a1-6)]GlcNAc. The method, boiled down: as §1
Test [17] has as its target Gal(b1-4)GlcNAc(b1-3)Gal(b1-4)GlcNAc(b1-3)Gal(b1-4)GlcNAc(b1-3)Gal(b1-4)GlcNAc(b1-3)Gal(b1-4)GlcNAc(b1-2)[Gal(b1-4)GlcNAc(b1-3)Gal(b1-4)GlcNAc(b1-3)Gal(b1-4)GlcNAc(b1-3)Gal(b1-4)GlcNAc(b1-3)Gal(b1-4)GlcNAc(b1-6)]Man(a1-6)[Gal(b1-4)GlcNAc(b1-3)Gal(b1-4)GlcNAc(b1-3)Gal(b1-4)GlcNAc(b1-3)Gal(b1-4)GlcNAc(b1-3)Gal(b1-4)GlcNAc(b1-2)Man(a1-3)]Man(b1-4)GlcNAc(b1-4)[Fuc(a1-6)]GlcNAc. In a few lines:
as §1

The target in test [18] is Gal(b1-4)GlcNAc(b1-3)Gal(b1-4)GlcNAc(b1-3)Gal(b1-4)GlcNAc(b1-3)Gal(b1-4)GlcNAc(b1-3)Gal(b1-4)GlcNAc(b1-3)Gal(b1-4)GlcNAc(b1-2)Man(a1-3)[Gal(b1-4)GlcNAc(b1-3)Gal(b1-4)GlcNAc(b1-3)Gal(b1-4)GlcNAc(b1-3)Gal(b1-4)GlcNAc(b1-3)Gal(b1-4)GlcNAc(b1-3)Gal(b1-4)GlcNAc(b1-2)Man(a1-6)]Man(b1-4)GlcNAc(b1-4)GlcNAc. The method, boiled down:
as §1

For test [19], the target named is Gal(b1-4)GlcNAc(b1-3)Gal(b1-4)GlcNAc(b1-3)GalNAc. In a few lines: as §1

B1: MGL (Homo sapiens), Q8IUN9 (protein)
chain: MTRTYENFQYLENKVKVQGFKNGPLPLQSLLQRLCSGPCHLLLSLGLGLLLLVIICVVGFQNSKFQRDLVTLRTDFSNFTSNTVAEIQALTSQGSSLEETIASLKAEVEGFKQERQAGVSELQEHTTQKAHLGHCPHCPSVCVPVHSEMLLRVQQLVQDLKKLTCQVATLNNNASTEGTCCPVNWVEHQDSCYWFSHSGMSWAEAEKYCQLKNAHLVVINSREEQNFVQKYLGSAYTWMGLSDPEGAWKWVDGTDYATGFQNWKPGQPDDWQGHGLGGGEDCAHFHPDGRWNDDVCQRPYHWVCEAGLGQTSQESH
For the molecule B1, the “glycan array binding signal (z-score)” value in test [1] was -0.248; in test [2], -0.239; in test [3] it was -0.242; in test [4], -0.235; in [5] it was -0.232; in test [6], -0.128. The “glycan array binding signal (z-score)” value is -0.217 in [7]; -0.24 in test [8]; -0.229 in [9]; -0.222 in [10]; -0.218 in [11]; -0.224 in test [12]. In addition, the “glycan array binding signal (z-score)” value in [13] was -0.226; in test [14], -0.219; in test [15], -0.223; in test [16], -0.18; in [17], -0.188; in [18] it was -0.218. For the same molecule, the “glycan array binding signal (z-score)” value in test [19] was -0.271.
